# Where a name gives a salt, the structure may show the parent alone. ± gives the standard deviation of the averaged measurements. The list shows a part of the results.
# Columns and labels:
# [1] = tested on: murine small intestinal organoids (ENR+CD Paneth differentiation); assay: cellular ATP (CellTiter-Glo 3D) relative to plate median (log10 fold change); higher = more viable cells; settings: 6 d
# [2] = tested on: murine small intestinal organoids (ENR+CD Paneth differentiation); assay: carbachol-stimulated secreted lysozyme activity relative to plate median (log10 fold change); higher = more Paneth cell lysozyme secretion; settings: 6 d, carbachol 10 µM
# [3] = tested on: murine small intestinal organoids (ENR+CD Paneth differentiation); assay: basal (non-stimulated) secreted lysozyme activity relative to plate median (log10 fold change); higher = more Paneth cell lysozyme secretion; settings: 6 d
# 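For basal (non-stimulated) secreted lysozyme activity relative to plate median in this document: ISC-enriched organoid precursors grown as 2.5D pseudo-monolayer on Matrigel, compound given on day 0 and day 3, plate values LOESS-normalized before median fold change, three murine donors.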
# 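For cellular ATP (CellTiter-Glo 3D) relative to plate median in this document: 2.5D pseudo-monolayer culture of ISC-enriched organoids partly embedded atop Matrigel, compound added on day 0 and again on day 3, per-plate LOESS correction before median fold change.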
Compound,cellular ATP (log10) ([1]; 0.08 µM),cellular ATP (log10) ([1]; 0.4 µM),cellular ATP (log10) ([1]; 2 µM),cellular ATP (log10) ([1]; 10 µM),carbachol-stimulated secreted lysozyme activity (log10) ([2]; 0.08 µM),carbachol-stimulated secreted lysozyme activity (log10) ([2]; 0.4 µM),carbachol-stimulated secreted lysozyme activity (log10) ([2]; 2 µM),carbachol-stimulated secreted lysozyme activity (log10) ([2]; 10 µM),basal (log10) ([3]; 0.08 µM),basal (log10) ([3]; 0.4 µM),basal (log10) ([3]; 2 µM),basal (log10) ([3]; 10 µM)
CNC(=O)c1ccccc1Nc1nc(Nc2ccc(N3CCOCC3)cc2OC)ncc1Cl,-0.748 ± 0.38,-0.882 ± 0.64,-0.817 ± 0.57,-0.646 ± 0.43,-0.5 ± 0.074,-0.177 ± 0.35,-0.259 ± 0.33,-0.25 ± 0.34,-0.292 ± 0.12,-0.0714 ± 0.39,-0.203 ± 0.19,-0.158 ± 0.21
Cc1cc(C(C)(C)C)c(O)c(C)c1CC1=NCCN1 [Oxymetazoline HCl],0.143 ± 0.069,0.118 ± 0.11,-0.00656 ± 0.14,0.118 ± 0.1,0.168 ± 0.067,0.162 ± 0.078,-0.0118 ± 0.021,-0.0608 ± 0.047,0.0592 ± 0.022,0.0154 ± 0.051,0.0228 ± 0.051,0.00749 ± 0.071
CCCCCCCCCCCC1=C(O)C(=O)C=C(O)C1=O [Embelin],-0.323 ± 0.56,-0.723 ± 1.2,-0.325 ± 0.43,-0.72 ± 1.3,0.0908 ± 0.14,0.00369 ± 0.043,-0.0367 ± 0.096,-0.0733 ± 0.0084,-0.0148 ± 0.2,-0.0818 ± 0.12,-0.0554 ± 0.15,-0.094 ± 0.076
COc1cc(-c2ncn(/C=C\C(=O)OC(C)C)n2)cc(C(F)(F)F)c1,0.116 ± 0.23,0.104 ± 0.22,-0.995 ± 0.74,-0.855 ± 0.92,-0.0379 ± 0.097,0.284 ± 0.13,-0.4 ± 0.071,-0.158 ± 0.37,-0.00566 ± 0.053,0.0971 ± 0.046,-0.209 ± 0.06,-0.0855 ± 0.22
CCN(CC)C(=O)/C(C#N)=C/c1cc(O)c(O)c([N+](=O)[O-])c1 [Entacapone],-0.115 ± 0.26,-0.0646 ± 0.5,0.206 ± 0.072,-0.391 ± 0.099,0.0808 ± 0.18,0.0859 ± 0.12,0.063 ± 0.091,0.0924 ± 0.034,0.136 ± 0.1,0.0117 ± 0.11,0.0855 ± 0.047,0.0999 ± 0.15
COc1ccccc1Oc1c(NS(=O)(=O)c2ccc(C(C)(C)C)cc2)nc(-c2ncccn2)nc1OCCO [Bosentan Hydrate],0.204 ± 0.19,0.207 ± 0.15,0.121 ± 0.093,0.0853 ± 0.13,0.164 ± 0.24,0.0561 ± 0.23,0.00296 ± 0.13,0.0681 ± 0.13,0.0901 ± 0.12,0.0677 ± 0.15,0.0387 ± 0.11,0.0583 ± 0.11
CC(NC(=O)c1ccccc1/N=C/c1c(O)ccc2ccccc12)c1ccccc1 (stereo unspecified) [Sirtinol],-0.164 ± 0.25,0.0067 ± 0.013,-0.0961 ± 0.14,-0.0377 ± 0.064,0.0284 ± 0.042,0.0568 ± 0.16,-0.0167 ± 0.14,0.209 ± 0.26,0.109 ± 0.041,0.0647 ± 0.17,0.0326 ± 0.1,0.0404 ± 0.038
Nc1ccc(C(=O)O)c(O)c1 [Sodium 4-Aminosalicylate],0.203 ± 0.062,0.166 ± 0.25,0.0448 ± 0.11,0.221 ± 0.14,0.139 ± 0.0088,0.153 ± 0.16,0.253 ± 0.099,0.163 ± 0.083,0.0931 ± 0.032,0.0546 ± 0.036,0.0975 ± 0.12,0.172 ± 0.18
COc1ccccc1S(=O)(=O)Nc1ccc2c(c1)CN(C)C(=O)N2,0.142 ± 0.17,0.39 ± 0.28,0.322 ± 0.32,-0.389 ± 0.43,0.106 ± 0.055,0.138 ± 0.31,-0.153 ± 0.084,-0.275 ± 0.026,0.0617 ± 0.059,0.0794 ± 0.2,-0.0979 ± 0.06,-0.0658 ± 0.062
O=C1NC(=O)/C(=C/c2ccc(-c3ccc(F)cc3O)o2)S1,0.139 ± 0.072,-0.0739 ± 0.24,-0.359 ± 0.52,-0.204 ± 0.13,0.0101 ± 0.11,0.00164 ± 0.011,-0.0309 ± 0.23,0.0226 ± 0.2,0.0699 ± 0.1,-0.0422 ± 0.032,-0.0798 ± 0.078,-0.077 ± 0.0087
C=C[C@@]1(C)CC(=O)[C@]2(O)[C@@]3(C)[C@@H](O)CCC(C)(C)[C@@H]3[C@H](O)[C@H](OC(C)=O)[C@@]2(C)O1 [Forskolin],-0.213 ± 0.13,-0.175 ± 0.08,-0.33 ± 0.34,-0.119 ± 0.22,0.0708 ± 0.057,0.365 ± 0.18,0.164 ± 0.3,0.22 ± 0.066,-0.00661 ± 0.11,0.159 ± 0.12,0.191 ± 0.21,0.219 ± 0.13
Cc1cc(Nc2cc(CN3CCOCC3)c3nc(C)c(Cc4ccc(Cl)cc4F)n3n2)n[nH]1,0.108 ± 0.087,0.062 ± 0.3,0.181 ± 0.2,-0.831 ± 0.47,0.14 ± 0.0084,0.0757 ± 0.011,0.168 ± 0.17,-0.419 ± 0.05,0.132 ± 0.26,0.00378 ± 0.027,0.0679 ± 0.053,-0.28 ± 0.081
O=C(Nc1cccc(Cl)c1)Nc1ncc(CCNc2ncnc3ccsc23)s1 [SNS-314 Mesylate],-0.812 ± 0.79,-0.675 ± 0.5,-0.271 ± 0.39,-0.363 ± 0.47,-0.272 ± 0.048,0.075 ± 0.3,-0.0859 ± 0.19,-0.0165 ± 0.31,-0.127 ± 0.061,-0.018 ± 0.11,-0.086 ± 0.069,0.018 ± 0.22
CN(c1ncccc1CNc1nc(Nc2ccc3c(c2)CC(=O)N3)ncc1C(F)(F)F)S(C)(=O)=O,-0.114 ± 0.091,-0.217 ± 0.1,-0.549 ± 0.037,-0.949 ± 0.27,-0.104 ± 0.051,-0.267 ± 0.056,-0.407 ± 0.13,-0.514 ± 0.0084,-0.0676 ± 0.024,-0.152 ± 0.094,-0.234 ± 0.15,-0.251 ± 0.09
Cc1nnc(C(C)C)n1C1C[C@H]2CC[C@@H](C1)N2CC[C@H](NC(=O)C1CCC(F)(F)CC1)c1ccccc1 (stereo in doubt) [Maraviroc],-0.0841 ± 0.086,0.0789 ± 0.26,-0.0092 ± 0.12,0.139 ± 0.35,0.102 ± 0.14,0.27 ± 0.17,0.0294 ± 0.15,0.0936 ± 0.15,0.0472 ± 0.11,0.0411 ± 0.048,0.0309 ± 0.079,0.0872 ± 0.1
CCN1CCC[C@H]1CNC(=O)c1cc(S(N)(=O)=O)ccc1OC [Levosulpiride],-0.0429 ± 0.16,-0.00649 ± 0.17,0.0311 ± 0.19,0.0899 ± 0.12,-0.0868 ± 0.1,0.126 ± 0.12,0.147 ± 0.21,-0.0725 ± 0.041,0.0131 ± 0.084,0.0235 ± 0.032,0.0506 ± 0.026,-0.0276 ± 0.083
NC1(Cc2ccc(Cl)cc2)CCN(c2ncnc3[nH]ccc23)CC1,0.0952 ± 0.22,-0.0252 ± 0.034,0.127 ± 0.22,-0.175 ± 0.13,0.255 ± 0.2,0.0277 ± 0.064,-0.00021 ± 0.033,-0.239 ± 0.1,0.323 ± 0.12,-0.0177 ± 0.024,0.0727 ± 0.13,-0.15 ± 0.086
Cc1ccc(C(=O)N(CCCN)[C@@H](c2oc3cc(Cl)ccc3c(=O)c2Cc2ccccc2)C(C)C)cc1,-0.543 ± 0.29,-0.582 ± 0.43,-0.241 ± 0.35,-0.418 ± 0.24,-0.412 ± 0.017,-0.231 ± 0.31,-0.221 ± 0.26,-0.146 ± 0.36,-0.249 ± 0.081,-0.0319 ± 0.38,-0.169 ± 0.15,0.00792 ± 0.41

# — the supplement of paper PMC9046079
